# From publication PMC4336329 (PLoS ONE, 2015)
# Screen size: about 310,000 compounds; about 2,200 (0.71%) showed an effect of 50% or more. The effect is printed as a negative number. The list shows a part of the results.
# Molecular target: human ether-à-go-go-related gene (hERG) potassium channel (human, UniProt Q12809)
# Test: primary screen, population patch clamp on CHO cells stably expressing hERG
# human ether-à-go-go-related gene (hERG) potassium channel, sequence (Q12809 whole entry, looked up): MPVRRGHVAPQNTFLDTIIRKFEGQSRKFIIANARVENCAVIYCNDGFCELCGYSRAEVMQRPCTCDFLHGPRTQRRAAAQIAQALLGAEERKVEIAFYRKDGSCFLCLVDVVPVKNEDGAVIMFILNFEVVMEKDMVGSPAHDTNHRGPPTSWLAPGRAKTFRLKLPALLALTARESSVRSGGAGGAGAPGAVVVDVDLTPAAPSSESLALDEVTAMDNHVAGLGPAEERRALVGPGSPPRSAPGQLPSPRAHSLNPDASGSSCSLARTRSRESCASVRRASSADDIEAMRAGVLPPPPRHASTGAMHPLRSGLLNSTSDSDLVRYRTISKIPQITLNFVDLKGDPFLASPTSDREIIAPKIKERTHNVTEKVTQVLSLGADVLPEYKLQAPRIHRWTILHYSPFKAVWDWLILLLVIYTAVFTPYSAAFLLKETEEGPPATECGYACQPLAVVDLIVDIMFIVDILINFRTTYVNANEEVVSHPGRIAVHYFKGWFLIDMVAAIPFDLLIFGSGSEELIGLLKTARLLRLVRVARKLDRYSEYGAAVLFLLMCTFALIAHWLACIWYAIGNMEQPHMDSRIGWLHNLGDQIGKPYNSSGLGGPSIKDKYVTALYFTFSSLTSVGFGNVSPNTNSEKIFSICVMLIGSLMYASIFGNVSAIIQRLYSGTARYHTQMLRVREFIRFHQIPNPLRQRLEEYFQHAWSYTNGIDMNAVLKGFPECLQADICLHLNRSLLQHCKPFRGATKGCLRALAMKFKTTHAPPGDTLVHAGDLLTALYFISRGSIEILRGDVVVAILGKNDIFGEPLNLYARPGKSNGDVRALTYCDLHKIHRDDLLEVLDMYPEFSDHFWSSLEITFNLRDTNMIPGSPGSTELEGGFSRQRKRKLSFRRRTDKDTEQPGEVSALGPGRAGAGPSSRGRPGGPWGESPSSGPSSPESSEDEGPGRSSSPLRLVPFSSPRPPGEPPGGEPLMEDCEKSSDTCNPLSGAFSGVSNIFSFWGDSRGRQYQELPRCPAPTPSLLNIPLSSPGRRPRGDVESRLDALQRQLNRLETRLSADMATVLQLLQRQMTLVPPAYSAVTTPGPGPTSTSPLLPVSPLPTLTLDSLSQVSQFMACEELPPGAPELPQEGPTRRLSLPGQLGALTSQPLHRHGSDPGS
row,Compound,"hERG current change (%, negative = inhibition) at 1uM"
1,CCOC(=O)c1c(-c2ccc(C)s2)csc1N,12.3%
2,O=C(Nc1nc2ccccc2c(=O)s1)c1ccc(F)cc1Cl,15.8%
3,CCOC(=O)c1c(CN2CCN(CC#N)CC2)n(C)c2cc(Br)c(OC)cc12,16.8%
4,O=C(CN1CCOCC1)Nc1ccc(F)cc1,9.75%
5,COc1ccccc1NS(=O)(=O)c1ccc2oc(SCc3ccc(C#N)cc3)nc2c1,6.27%
6,Br.CCCSc1ccc2nc(-c3ccccc3)cn2c1,13.4%
7,O=S(=O)(NCC1CC1)c1ccc(F)c(Cl)c1,4.94%
8,N#CC1(c2nc3ccccc3[nH]2)CC1c1ccc2c(c1)OCO2 (stereo not shown),11%
9,Cc1sc(NC(=O)c2ccccc2)c(C(=O)NCCN(C)C)c1C,5.04%
10,Nc1nc(SCCOc2ccccc2)n[nH]1,8.36%
11,Cc1[nH]c(=O)[nH]c(=O)c1NC(=O)c1ccc(OC(C)C)cc1,-0.315%
12,CCO[C@H]1OC(C(=O)NCc2nc3ccccc3[nH]2)=C[C@@H](C2CCCCC2)[C@@H]1CCCO,16.3%
13,Cc1ccc(C)c(-n2cc(CNCCc3cnccn3)c(-c3ccccc3)n2)c1,-20.3%
14,CCOc1ccc(CN2CCN(c3ncnc4scc(-c5ccccc5)c34)CC2)cc1,-6.88%
15,C=CCC1(C(=O)N(C)Cc2ccccc2)CCN(C(=O)OC(C)(C)C)CC1,11.2%
16,Cn1c2ccccc2n2c(=O)c(=O)n(CC(=O)N3CCCc4ccccc43)nc12,-1.27%
17,CCOc1cc(/C=C2\C(=N)N3N=C(C)SC3=NC2=O)ccc1OCCOc1ccccc1,8.11%
18,COC(=O)C1=C(c2ccccc2OCc2ccccc2)C[C@@H]2CC[C@H]1N2C(=O)NCCN1CCOCC1,11.4%
19,CC(=O)Nc1ccc(OCC(=O)NCc2ccc3c(c2)OCO3)cc1,8.6%
20,Oc1ccc(Br)cc1CN1CCCCCCC1,-5.23%
21,O=C(COc1ccc(Br)cc1F)N1CCN(c2ncccn2)CC1,-8.46%
22,CC(C)c1ccc2c(c1)C(c1ccc(N3CCOCC3)cc1)=NNC(c1cccs1)=N2,-8.1%

row,Compound,"hERG current change (%, negative = inhibition) at 1uM"
1,COc1c(C)cc(C(=O)C2CCCN(S(=O)(=O)N(C)C)C2)cc1C (stereo not shown),-24.3%
2,COc1cccc(N2CCN(C(=O)c3cccc(NC4=NC5CS(=O)(=O)CC5S4)c3)CC2)c1 (stereo not shown),5.77%
3,COc1ccc(C(=O)/C=C/Nc2ccc([N+](=O)[O-])cc2)cc1,13.5%
4,C=CCn1c(SCC(=O)Nc2nc(C)cs2)nnc1C(C)NC(=O)c1ccccc1Cl (stereo not shown),8.11%
5,Cc1ccc(C)c(S(=O)(=O)N2CCCC2CNC(=O)C(=O)NCCN2CCOCC2)c1 (stereo not shown),16.9%
6,COc1cccc(OC)c1OCCN(C)C.O=C(O)C(=O)O,-3.49%
7,O=C(COc1cc(F)ccc1[N+](=O)[O-])Nc1ccc2c(c1)OCO2,4.29%
8,O=c1c2ccc(Cl)cc2nc2n1CC/C2=C\c1cccc(O)c1,7.81%
9,Nc1nc(SCc2ccc(Cl)cc2)[nH]c(=O)c1-c1ccccc1,5.31%
10,CCOc1nc(Nc2ccc(F)cc2)nc(N2CCN(c3ccc(OC)cc3)CC2)n1,-13.7%
11,O=C1C2C3c4ccccc4C(c4ccccc43)[C@@H]2C(=O)N1c1ccccn1 (stereo partly shown),8.05%
12,COc1ccc(-n2cc3ccc([N+](=O)[O-])cc3n2)cc1,15.4%
13,CC(C)(C)c1ccc(-c2nc3cc(N)ccc3o2)cc1,16.6%
14,Cc1cc(C)n(-c2nc(SCC(=O)N3CCCC3)c3c4c(sc3n2)CCCC4)n1,0.887%
15,COc1ccc(CCNS(=O)(=O)c2cccc3nsnc23)cc1OC,-2.28%
16,O=C(O)c1cccc(NC(=O)c2ccc(S(=O)(=O)c3ccccc3)cc2)c1,5.52%
17,COc1cccc(CN(C)C(=O)c2cc(-c3cccs3)nc3ccccc23)c1,-0.684%
18,O=C(O)c1cc(O)c2c(c1)C(=O)c1cccc(O)c1C2=O,14.1%
19,Cc1nnc(SCC(=O)Nc2ccccc2NC(=O)CSc2nnc(C)s2)s1,12.2%
20,COc1ccccc1N(C)S(=O)(=O)c1ccc(C(=O)Nc2nccs2)cc1,-11.4%
21,CC(C)C(C(=O)OCC(=O)c1cccc([N+](=O)[O-])c1)N1C(=O)[C@@H]2[C@H]3CC[C@H](C3)[C@@H]2C1=O (stereo partly shown),10.1%
22,Cc1ccc(Nc2nc(N)c3ccccc3n2)cc1Cl.Cl,16.8%

row,Compound,"hERG current change (%, negative = inhibition) at 1uM"
1,CC(C)C(=O)Nc1nnc(CCc2nnc(NC(=O)C(C)C)s2)s1,11.6%
2,Cc1c(Cc2ccc3c(c2)OCO3)sc(NC(=O)C(C)(C)C)c1C#N,11%
3,Cc1ccc(N2C(=O)[C@@H]3C(c4cccnc4)=NO[C@@H]3C2=O)cc1,14.5%
4,CCOC(=O)c1ccccc1OCc1cc(/C=N/n2cnnc2)ccc1OC,14.8%
5,Cc1ccc(S(=O)(=O)NNC(=O)C2Cc3c(ccc4ccccc34)O2)cc1 (stereo not shown),18.1%
6,CCc1cc2c(N3CCN(c4ccccc4)CC3)ncnc2s1,5.04%
7,Cc1cc(N=NC(=O)c2ccccc2)ccc1O,12.5%
8,CCCCNC(=S)NNC(=O)c1ccc(Br)o1,8.06%
9,Brc1ccc2ncnc(Nc3ccc(N4CCOCC4)cc3)c2c1,-15.8%
10,CCOC(=O)c1c(CNc2ccncc2)n(C)c2cc(Br)c(O)cc12.Cl,9.61%
11,Cc1cc(C)n(-c2ccc([N+](=O)[O-])cc2)n1,6.72%
12,CC(NS(=O)(=O)c1cn(C)c(=O)n(C)c1=O)c1ccccc1 (stereo not shown),-0.535%
13,CCc1nn(C(CC)C(=O)NCCCN2CC(C)CC(C)C2)c(=O)c2cc3oc(C)cc3n12 (stereo not shown),-11.1%
14,COc1ccc(OC)c(/C=N/N=C(\N)c2nonc2N)c1,9.32%
15,CN(C(=O)CSc1nc2ccccc2[nH]1)C1CCS(=O)(=O)C1 (stereo not shown),14.7%
16,COc1ccccc1C(=O)COC(=O)CN1C(=O)C2CC=CCC2C1=O (stereo not shown),27.1%
17,CCOc1cccc(OCCCCN2CCOCC2)c1,-3.9%
18,CCNS(=O)(=O)c1ccc(CCC(=O)NCc2ccccn2)cc1,9.81%
19,CC1=NN(c2ccccc2)C(=O)/C1=C/c1cccs1,6.03%
20,CSc1nc2cc(C)nn2c(-c2ccccc2)c1C#N,11%
21,CCOc1ccc(C2NC(=O)C(C#N)=C(S)N2c2cccc(C)c2)cc1OC (stereo not shown),16.8%
22,O=c1cc(-c2ccc(O)cc2)oc2c(C3OCC(O)C(O)C3O)c(O)c(C3OC(CO)C(O)C(O)C3O)c(O)c12 (stereo not shown),10.3%

row,Compound,"hERG current change (%, negative = inhibition) at 1uM"
1,O=S(=O)(Nc1cccnc1)c1ccc2c(c1)OCCO2,23.4%
2,CCC(C)(C)C1CCC2(CC1)NC(=O)N(CC(=O)NCCOc1ccccc1)C2=O (stereo not shown),3.26%
3,Cc1cnc(C(=O)OCC(=O)Nc2ccc(C)c(S(=O)(=O)N(C)C)c2)cn1,11.1%
4,CCNC(=O)NC(=O)C(C)OC(=O)c1ccc(SC)cc1OC (stereo not shown),11.9%
5,O=C(c1cccc(F)c1)N1CCN(c2cccc(Cl)c2)CC1,3.05%
6,CCCCC(=O)Nc1cccc(NC(=S)NC(=O)C(C)C)c1,14.3%
7,CN1CCN(S(=O)(=O)c2cccc(S(=O)(=O)c3ccc(Cl)c(Cl)c3)c2)CC1,-0.389%
8,COc1cccc(N2CCN(C(=O)NC3CCCCC3)CC2)c1,-1.67%
9,O=S(=O)(NCc1cc(-c2ccccc2)no1)c1ccccc1,11.1%
10,COc1ccccc1CN(C(=O)CNC(=O)c1ccco1)C(C(=O)NCC1CCCO1)c1ccccc1 (stereo not shown),26.5%
11,Cn1c(SCC(=O)N2CCN(c3ccccc3)CC2)nnc1-c1ccncc1,-2.89%
12,CCOC(=O)c1cccc(NC(=O)CN(c2ccc(OC)cc2)S(=O)(=O)c2c(C)noc2C)c1,-10%
13,CC(=O)c1cccc(NC(=S)Nc2ccn(Cc3cccc4ccccc34)n2)c1,5.35%
14,O=C(Nc1nnc(S(=O)(=O)N2CCCCC2)s1)c1cccc(Br)c1,5.53%
15,CC[C@@H]1C(=O)OC[C@@H]1Cc1cncn1C.Cl,-1.02%
16,O=C(CSC1=NCCN1)NC(c1ccccc1)c1ccccc1,6.11%
17,COc1cccc(-c2nnc(-c3ccc(C(F)(F)F)cc3)o2)c1OC,4.21%
18,CC1CCC(C(C)C)C(OC(=O)C[n+]2cccc(C(N)=O)c2)C1.[Cl-] (stereo not shown),10%
19,COc1cc(C2C(C#N)=C(N)Oc3cc4c(cc32)OCO4)cc(OC)c1OC (stereo not shown),11.4%
20,CCC(OC(=O)c1cccs1)C(=O)NC1CCCCC1 (stereo not shown),-3.56%
21,COc1ccc2[nH]c(=O)c(CN(Cc3nnnn3Cc3ccccc3)CC3CCCO3)cc2c1 (stereo not shown),7.22%
22,CN(C)Cc1nc2ccccc2c(=O)n1Cc1nc(C(C)(C)C)cs1,1.55%
